These results are taken from the supplement of paper PMC5655136.

These are enrichments in a pooled selection; single values are uncertain.
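Further: shRNA barcodes quantified by deep sequencing of PCR amplicons from cellular DNA, counts expressed as percent of each subpool, ratio averaged over two biological duplicates.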

The test system of one series is NB7. The series can be described thus: fold depletion of shRNA, plasmid library share / infected cells without Dox share (9 days) (ratio); higher = more depleted after infection (more toxic, leaky expression from a Tet-inducible vector; NB7 is a neuroblastoma line without caspase-8). To be noted: shRNA pool: CD95L ORF + CD95L 3'UTR + Venus libraries.
Regarding AAAGACCCCAACGAGAAGCGC, the “fold depletion of shRNA” value came to 0.609. As to AATTGTAGGGGTGTGTGTGTG, the “fold depletion of shRNA” value amounted to 2.46.

Take AATAGTGCTTAAAAATCATTG: the “fold depletion of shRNA” value stood at 0.879. Same read-out and setting: the same measure for GGGTGGCCTTGTGATCAATGA: 1.86; for TCAATCTTACCAGTGCTGATC: 1.14.

ATAAGCAAGAGAGATGTTTTG: the “fold depletion of shRNA” value turned out to be 0.593. Same read-out and setting: the result for CATATTAGGAAAATATGGGTT reads 0.897.

With CACCCCCTGAAAAAAAGGAGC, the “fold depletion of shRNA” value came out at 1.3. Turning to ATGTAGATATTGTGAAGTACA, the “fold depletion of shRNA” value was 0.779. The same measure, in the same setting: the result for ACCCTGGGCTACGGCCTGCAG reads 1.03.

CCCCGTGCTGCTGCCCGACAA: the “fold depletion of shRNA” value came out at 1.06. The same measure, in the same setting: the same measure for CGAAGGCTACGTCCAGGAGCG: 0.404; for AGCTGGACGGCGACGTAAACG: 1.06.

For the sequence TAGAACTCTGGGCTGCCATGT, the “fold depletion of shRNA” value came out at 1.91. The same measure, in the same setting: the result for GGGCCCGCAGCAGCTACCTGG reads 0.738.

On to ATGTAATAAAAAGTATATGTT, for which the “fold depletion of shRNA” value was 0.418. Turning to GACGTAAACGGCCACAAGTTC, the “fold depletion of shRNA” value is 0.738. Still for that read-out and setting: the result for AAGCGCGATCACATGGTCCTG reads 0.986. With ACCACTACCACCTCCGCCGCC, the “fold depletion of shRNA” value was determined as 6.07. Regarding TCGCCCGCTACCCCGACCACA, the “fold depletion of shRNA” value was determined as 0.7. The same measure, in the same setting: the result for CGGCAAGCTGCCCGTGCCCTG reads 0.838; that for TCAACGTATCTGAGCTCTCTC, 1.97; that for CTGAGCAAAGACCCCAACGAG, 1.22. On the same count and under the same terms, the result for AACTACAACAGCCACAACGTC reads 0.878. Regarding AGCTGCCCGTGCCCTGGCCCA, the “fold depletion of shRNA” value stood at 0.723.

TTATGATTCTTTGTTACAGGC: the “fold depletion of shRNA” value was 1.51.

Turning to ACCCCGACCACATGAAGCAGC, the “fold depletion of shRNA” value stood at 1.25. Same read-out and setting: the result for CCGCCGACAAGCAGAAGAACG reads 0.793; that for ATGGGAAGACACCTATGGAAT, 0.756. As to TTAGTGCCTGAGAGTATTTAG, the “fold depletion of shRNA” value amounted to 1.17. On the same count and under the same terms, the result for GGCACAAGCTGGAGTACAACT reads 3.17; that for CAAGCAGAAGAACGGCATCAA, 1.23.

Take ACTTCCGGGGTCAATCTTGCA: the “fold depletion of shRNA” value was 22.

With CATCATCTTTGGAGAAGCAAA, the “fold depletion of shRNA” value is 0.561.

As for AGTGCAATTGTAGGGGTGTGT, the “fold depletion of shRNA” value is 2.46. Take ATTCTTTCCATTATGATTCTT: the “fold depletion of shRNA” value came out at 0.491. Regarding CTACCACCTCCGCCGCCGCCG, the “fold depletion of shRNA” value amounted to 0.0637. For the sequence ATATGTCAACGTATCTGAGCT, the “fold depletion of shRNA” value was 3.17.

Regarding GAAGTATAAGAAGGGTGGCCT, the “fold depletion of shRNA” value came out at 1.68.

Consider GAAGATGATGAGCTACTGCAC, for which the “fold depletion of shRNA” value stood at 1.74. Still for that read-out and setting: the result for ACATGTAATAAAAAGTATATG reads 0.455.

The series is the same for the next values; noted with them: shRNA pool: CD95 ORF + CD95 3'UTR + Venus libraries.
With AAAGACCCCAACGAGAAGCGC, the “fold depletion of shRNA” value stood at 0.78. Regarding CCAATTCCACTAATTGTTTGG, the “fold depletion of shRNA” value was determined as 0.818.

As for GGCAAGACTGCCCTTAGAAAT, the “fold depletion of shRNA” value was 1.37. Consider CAATAAATTTATCTGATGTTG, for which the “fold depletion of shRNA” value turned out to be 0.702. With TTCCATTTATGGAGGATTTTT, the “fold depletion of shRNA” value was 1.15.

For CTATCCTACGTTTAAATATCT, the “fold depletion of shRNA” value came out at 0.651. On the same count and under the same terms, the result for ATGCACCCCCAAACATGGAAA reads 2.86; that for AGTTACTGAACAGGCAGGCCA, 8.09. Turning to AGGAAGTACAGAAAACATGCA, the “fold depletion of shRNA” value is 1.74. On the same count and under the same terms, the same measure for ACCCTGGGCTACGGCCTGCAG: 0.557. Consider TGTTTGGGTGAAGAGAAAGGA, for which the “fold depletion of shRNA” value was determined as 0.926. On to ATGATTCTGTAGTATGAATGT, for which the “fold depletion of shRNA” value stood at 1.02. Same read-out and setting: the result for GCTGACCCTGAAGCTGATCTG reads 1.39; that for GAAAGGAAAGCTAGGGACTGC, 2.08. Take TAAACTGCACCCGGACCCAGA: the “fold depletion of shRNA” value worked out at 1.93. On to TGCCCCTTGTGTTTGGAATTA, for which the “fold depletion of shRNA” value was 3.35. The same measure, in the same setting: the same measure for CAAGTGACTGACATCAACTCC: 2.08; for CCCCGTGCTGCTGCCCGACAA: 1.5; for ATTTAGGAATTGCTCTTGTCA: 1.74. Regarding AACCACCTAAAGAACTTCCAT, the “fold depletion of shRNA” value stood at 1.37. CGAAGGCTACGTCCAGGAGCG: the “fold depletion of shRNA” value turned out to be 0.417.

As to TCCTTACTACTATCCTACGTT, the “fold depletion of shRNA” value is 0.789. As for TAGAAATTCTAGCCTGGTTTG, the “fold depletion of shRNA” value was found to be 0.587. Still for that read-out and setting: the result for AGCTGGACGGCGACGTAAACG reads 0.611.

For the sequence TCAATAGAAGAAGCTATGACC, the “fold depletion of shRNA” value was 0.59. Same read-out and setting: the result for TGGAATCATCAAGGAATGCAC reads 0.675; that for TTGAGGAAGACTGTTACTACA, 2.09. The same measure, in the same setting: the result for TTTACTGGCTCAAAACTACCT reads 16.7; that for GTCAATGGGGATGAACCAGAC, 2.19. Same read-out and setting: the result for GACGTAAACGGCCACAAGTTC reads 1; that for AAGCGCGATCACATGGTCCTG, 1.02; that for TCGCCCGCTACCCCGACCACA, 0.809. In the case of CGGCAAGCTGCCCGTGCCCTG, the “fold depletion of shRNA” value was 0.746. On the same count and under the same terms, the same measure for AAGGATGTTTAAAATCTAGTT: 0.872; for AAGATTCTTAATAGCTGGCTG: 1.6.

CTTGGTTTTTTACTGGGTACA: the “fold depletion of shRNA” value worked out at 0.296. For TGTGAACACTGTGACCCTTGC, the “fold depletion of shRNA” value turned out to be 1.44. ATTAGCGCTGAAGAGCCAACA: the “fold depletion of shRNA” value was determined as 5.12. As to CAGGCTAACCCCACTCTATGA, the “fold depletion of shRNA” value is 1.24. For the sequence TTTGAAAGTTTGTATTAAATG, the “fold depletion of shRNA” value stood at 0.991.

For CTGAGCAAAGACCCCAACGAG, the “fold depletion of shRNA” value stood at 1.26.

On to AACTACAACAGCCACAACGTC, for which the “fold depletion of shRNA” value was 0.778. On the same count and under the same terms, the same measure for AAGTTTGTATTAAATGTGAAT: 0.795. Consider AGCTGCCCGTGCCCTGGCCCA, for which the “fold depletion of shRNA” value was 1.38. For ACTATTATATATGTGTATGCA, the “fold depletion of shRNA” value is 1.18.

As for ACCCCGACCACATGAAGCAGC, the “fold depletion of shRNA” value came out at 1.8. Same read-out and setting: the result for CCGCCGACAAGCAGAAGAACG reads 0.826; that for ACATATTTGTAGATTTTTAAT, 0.679; that for GTGAAGAGAAAGGAAGTACAG, 2.47. Consider GGCACAAGCTGGAGTACAACT, for which the “fold depletion of shRNA” value stood at 1.89. Turning to CAAGCAGAAGAACGGCATCAA, the “fold depletion of shRNA” value turned out to be 1.44. Same read-out and setting: the same measure for GTCATGAACCCATGTTTGCAA: 2.07. The same measure, in the same setting: the same measure for ATTTTACTGGCTCAAAACTAC: 1.52; for TTGTGTTTGGAATTATAAAAT: 2.06. Same read-out and setting: the same measure for GGGTGGCTTTGTCTTCTTCTT: 0.639.

Take GATTCTGTAGTATGAATGTAA: the “fold depletion of shRNA” value was 1.3.

In the case of AAAACCAAGGTTCTCATGAAT, the “fold depletion of shRNA” value worked out at 0.961. With GCTCTACCTCAAAGACCTTTG, the “fold depletion of shRNA” value was 5.15.

On to TTGTATTAAATGTGAATTTTA, for which the “fold depletion of shRNA” value is 0.832. The same measure, in the same setting: the same measure for GTATTTGAGTGCAGAATTTAA: 1.08. Consider CAACTCCAAGGGATTGGAATT, for which the “fold depletion of shRNA” value was 0.812.
